# According to patent US20060153833A1 (Genmab, published 2006):
# B1: HMAb 503 (antibody, V domains shown)
# VH: QVQLQQWGAGLLKPSETLSLTCAVYGGSLSGYFWTWIRQSPGKGLEWIGESNYSGSTRYNPSLKSRVTISVDTSQNQFSLKLSSVTAADTAVYYCARGWAVDGMDVWGQGTTVTVSS
# VL: SYELTQPPSVSVSPGQTARITCSGDALPKQYAYWYQQKPGQAPVLVIYKDNERPSGIPERFSGSRSGTTVTLTISGVQAEDEADYYCQSADSSGSSWVFGGGTKLTVL
# notes: also called antibody 503; clone 503
# Molecular target: T1, E1 E2 complexes (noncovalently associated heterodimers and disulfide-linked aggregates) from cells expressing … (Hepatitis C virus strain H (genotype 1a), UniProt P27958 192-383; P27958 384-746)
# T1 construct: E1 is coprecipitated by the anti-E2 antibodies; also called E2/E1 complexes
# Assay: pulse-chase immunoprecipitation, reducing and non-reducing SDS-PAGE
binder,measurement,value
B1,binding result,binds
